# Data from ChEMBL document CHEMBL4888484, “Replenishing the malaria drug discovery pipeline: Screening and hit evaluation of the MMV Hit Generation Library 1 (HGL1) against asexual blood stage Plasmodium falciparum ,using a nano luciferase reporter read-out” (2022).
# The campaign covered roughly 150,000 compounds. About 540 (0.36%) showed an effect of 50% or more. The list shows a part of the results.
# Tested on: Plasmodium falciparum
# Assay: Primary screen in NF54 nanoGlo assay, in single point, at 2uM, 72h; a lower Z score goes with more inhibition
# Type: functional, Erythrocyte
# Details: timepoint 72 hour
SMILES,% Inhibition,Z score
C=CCNS(=O)(=O)c1cc(Br)c(C)cc1C,-6%,0.79
Cc1n[nH]c(C)c1CC(=O)N1CCC2(CCc3ccccc3C2)CC1,-8%,1.46
COc1ccc(Oc2nc(-c3ccccc3)c3cc(Br)ccc3n2)cc1,-3%,0.45
O=C(NC1CCOCC1)c1cccc(S(=O)(=O)NCc2ccccn2)c1,-4%,0.76
O=C(Cn1cnc2ccc(Cl)cc2c1=O)Nc1ccc(OCc2ccccc2)cc1,-17%,2.62
CC1CC(C)CN(S(=O)(=O)N2CCCC(O)c3cc(F)ccc32)C1 (stereo unspecified),-8%,1.05
C[C@H]1CN(C)C(=O)CN1c1nccc(C(C)(C)C)n1,-19%,2.07
COc1ccc(S(=O)(=O)C2CCN(C(=O)CNC(=O)OCc3ccccc3)CC2)cc1,4%,-0.47
C[C@@H]1CCN(C(=O)Nc2cccc(-n3cc(C(F)(F)F)cn3)c2)C[C@H](C)O1,-13%,1.34
CCn1cc(NC(=O)[C@@H]2CC(c3cc(F)ccc3F)=NO2)cn1,-9%,1.4
COc1nc2c(cc1CNC(=O)[C@H]1CC[C@@H](O)CC1)C(=O)N(C1CCCC1)C2,-9%,1.94
Cc1noc(C)c1CN1CCCN(CC(=O)N2CCCC2)CC1,-2%,0.23
Cc1nonc1CC(=O)NC[C@H]1CC(=O)N(C(C)(C)C)C1,-9%,1.69
Cc1ocnc1C(=O)NCCc1nc2ccccc2o1,-5%,0.94
CN1CCCN(C(=O)c2cccc(S(=O)(=O)N3CCCCC3)c2)CC1,-4%,0.33
CN(C/C=C/c1ccco1)CC1(CO)CCCC1,-9%,1.84
Cc1cc(Oc2ccc(NC(=O)c3csnn3)cc2)n[nH]1,-11%,1.16
O=C(NCc1nc(CO)cs1)c1cscc1C(F)(F)F,6%,-0.6
Cc1cccc2c(CNCc3n[nH]c(=O)[nH]3)cccc12,2%,-0.32
COCCC1(c2noc(C)n2)CCN(C(=O)CN2CCCCCC2)CC1,-11%,1.42
CCCS(=O)(=O)NC[C@H](N)c1ccc(C(C)C)cc1,0%,0.01
COc1ccc2nc(CN3CCC[C@H]3C(C)(C)O)sc2c1,-3%,0.49

SMILES,% Inhibition,Z score
CCS(=O)(=O)C[C@H](C)N(C)c1ccnc(Cc2ccccc2)n1,0%,0.05
CCc1ccc(CN2CCC(N3CCC[C@H](C(=O)NC4CC4)C3)CC2)o1,-7%,0.97
Cc1ccc(CNC(=O)n2ncc3ccccc32)cc1,-16%,3.2
O=C(Cn1ncccc1=O)Nc1cccnc1,2%,-0.24
CCn1cc(CNC(=O)Cn2ccc(=O)cc2)c(C)n1,2%,-0.27
Cc1nc2ncccc2cc1-c1nc(C2CC2)n[nH]1,-2%,0.24
c1coc(Cn2ccnc2-c2cnc(N3CCCC3)s2)c1,1%,-0.09
CCCn1cc(CNC(=O)CN2CCCC2)cn1,-7%,0.77
O=C1OCC2(CCN(Cc3ccccc3OC(F)(F)F)CC2)O1,10%,-0.93
Cc1nn(C)c2c(N3CCc4ccccc4C3)nc(C3CC3)nc12,38%,-5.44
CC(C)(C)c1cn(C[C@H]2CCCN(C(=O)c3ccc4nccnc4c3)C2)nn1,-5%,0.95
Cc1cccc(C(=O)Nc2cc(OCc3cccc(F)c3)c(Cl)cc2Cl)c1,-1%,0.15
Cc1cccc(CCNC(=O)Cn2nc(C)n(CCc3ccccc3)c2=O)n1,5%,-0.65
C[C@H]1Cc2ccccc2N1c1cc(C#N)ncn1,-2%,0.25
O=C(c1cccnc1)N1C[C@@H]2C[C@@H](O)CN2C2(CN(CC3CC3)C2)C1,2%,-0.37
Cc1cnn([C@@H](C)CNC(=O)c2c(Cl)c(C)nn2C)c1,-15%,1.29
Cn1cc([C@H]2CCCN(C(=O)c3cscn3)C2)cn1,-7%,1.4
Cc1noc(C)c1CCCn1cnc2cnccc2c1=O,-7%,0.9
NC1=NC(c2ccccc2)(c2ccccc2)C(=O)N1,-8%,1.16
O=C(CN(Cc1ccccc1)C(=O)c1ccc(F)c(F)c1)N1CCNCC1,-10%,1
Cc1cnc(CN2C[C@]3(CCCN(c4nccs4)C3)CCC2=O)cn1,1%,-0.18
